Over roughly 33,000 sequences, “E-score (-0.5 to 0.5)” has its median near -0.013; the highest 2% begin near 0.3. The list shows a part of the results.
The sequences below were run against T1, Msn1 (UniProt P22148) (assay: PBM E-score (8-mer binding enrichment) (E-score (-0.5 to 0.5)); higher = stronger / more preferred TF binding; most listed sequences are background and not binding sites). Settings: protein concentration: 200 nM; construct: GST-full length.
T1 sequence: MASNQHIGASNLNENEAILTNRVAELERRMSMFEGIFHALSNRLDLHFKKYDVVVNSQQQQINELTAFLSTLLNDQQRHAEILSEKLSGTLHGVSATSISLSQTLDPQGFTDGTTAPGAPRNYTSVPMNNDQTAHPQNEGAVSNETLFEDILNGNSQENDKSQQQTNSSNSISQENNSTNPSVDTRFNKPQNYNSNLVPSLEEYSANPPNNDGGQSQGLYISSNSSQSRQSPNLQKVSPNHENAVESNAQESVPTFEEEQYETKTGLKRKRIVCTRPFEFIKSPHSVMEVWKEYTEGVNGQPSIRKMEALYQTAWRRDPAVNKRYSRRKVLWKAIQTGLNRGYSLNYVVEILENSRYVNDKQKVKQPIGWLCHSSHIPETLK
Summary of the method: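 The E-score, a modified Wilcoxon-Mann-Whitney statistic, was computed by the Universal PBM Analysis Suite for every ungapped eight-base word pooled with its reverse complement. Scans behind it were normalised with masliner after bound GST-tagged yeast transcription factors were detected with fluorescent anti-GST. The proteins, at about 100-200 nM, had been applied to universal all-10-mer Agilent arrays made double-stranded by primer extension.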

Sequence	PBM E-score
AACTTGGG	-0.108
CGTGAGTA	-0.0497
AAGCTCGC	0.0933
GAGAAGGC	-0.316
AAATAGTC	0.107
GGAATCTA	-0.0568
CCATGGGG	-0.149
CACTCCCC	-0.105
CGAGGTGA	0.0696
CACTCTGG	-0.148
AGCCAATA	-0.113
AATTGGGA	0.148
AACCTGTG	0.0255
TAACGCTA	-0.161
ATGGCTTG	-0.0769
ATTTACTG	0.0688
AACAATGT	0.161
CCGCGCAA	0.00972
CGATTCGA	0.134
ACACTAGT	0.0855
AATGCCCC	-0.197
CGACGCTC	-0.0884

Sequence	PBM E-score
GTTTGCAA	0.0769
AGGTTGTC	0.085
CTGGGCCC	-0.252
CCTAGTCG	-0.0499
CTACGAGC	-0.118
ACGCTGTC	-0.18
AAGGCCTC	-0.18
ATATTTTC	0.226
ACTCAAGA	0.0683
CTGCACAC	-0.225
AGATAGCG	-0.188
AACGACCG	-0.00986
AGTAAATA	0.196
ATCTCTGC	0.0623
GTGCAGTA	-0.0226
GAGCTGGA	-0.145
GCCAACAC	-0.00952
CAATCTTC	0.0437
TGGTTTAA	0.147
ATCTCGTG	0.0208
ATTCCCCC	-0.325
ATCACTCC	-0.0871

Sequence	PBM E-score
ATACGCAG	0.0264
CACGCCCC	-0.222
GATAGCTA	-0.113
CGACTGAC	-0.0843
CAAATATC	0.216
GTACCAGA	0.0666
ACGCTTCT	-0.0777
CCCGTACA	-0.119
GGAGTTAA	0.0335
ATCAGTGA	-0.119
AAAATGCT	0.0679
CGATGTCC	0.436
CGTGGTCC	-0.119
CCTATGAC	-0.0574
AGAAGGTA	0.059
AGTTGAGC	-0.0632
CCACAGGG	-0.183
CTGGCGAA	-0.23
AAGTCGAG	-0.126
CAGTCTTA	-0.0789
GGCCCGCC	-0.293
GTTTAGAA	0.104

Sequence	PBM E-score
GTTCATTA	0.097
AACTAAGC	0.0314
GAGACCCA	-0.00742
ACCAGGTG	-0.292
GAAAATAA	0.0878
CATTGCTC	-0.0154
ATTCGTTC	0.171
GAAAACTC	0.0204
ATCTGAGC	0.0992
AGAAGGAC	0.175
CTGAGATC	-0.0493
ATTTCAAC	0.207
CGAGGCAG	-0.0958
TCATGCGA	-0.0309
CTCCGAGA	0.152
TACCTCTA	0.0695
CAGGGAGA	-0.162
ACGACGGA	0.182
AAGTTGGG	-0.00987
AACTCTGC	-0.136
GGAAACTA	-0.0538
ATTTCGCG	0.136

Sequence	PBM E-score
CATATTGG	0.206
CGATAGAA	0.0218
CTTGGCGC	-0.153
CAGTTCGC	-0.0367
GAAATCAA	0.00318
AATAAAGC	0.116
AGGATCGG	-0.173
AGACCCGC	-0.0145
TAAATCAA	0.0886
GATCAGCA	0.0297
ACCGGAGG	-0.209
AGACCCCA	-0.239
ACGGATCG	-0.0717
TGAGCCCA	-0.131
ATGAGACG	-0.109
ACAGAGGA	-0.0275
ACGGTCTA	-0.00545
TGCTTACA	-0.0339
ACGTATTG	-0.0138
GCACGGAC	0.166
AGCAACAG	-0.0183
CGCGTCTA	0.129
